The text below walks through data of the supplement of paper PMC12632987.

In all, about 4,500 sequences were measured (“median log2 fold change of GCK-ALFA target abundance (FLAG IP / Myc IP barcode read proportion)”: median about 0.078, lowest 2% from about -0.6 on). The list shows a part of the results.

To fix the notation:
B1: GBRAP_160_4365 (protein)
chain: SEALKELAEEIEELREEFREEAKDLSPEEVRTLGLGVLAEVAALVWDNEAVSDEVEDEIMEIIDEAEEELRESKDASPEELVEIVEEAIEEIIELIKKEA
B2: GBRAP_166_4948 (protein)
chain: SLEEVIEETREFIRELAERMKTLNDEERLDALIEIAERLEEARKAGVSEEDLLELVREALELVKEAGGSVEQFVGALDMFVDLDEEELDKVAEIAEEVKA
B3: GBRAP_78_6586 (protein)
chain: AIEAAIDALLAAAGAAMRLLSRDPRELAQDLLGELIDEVSEIYEAAEEENDKEEILAEAEELAAALQAALAQAEQFSPETVAAIQAALAAAQALIALLKK
B4: GBRAP_43_5764 (protein)
chain: SKELVDGAFDFALLALEEPSIPEETKVKAIKAAFGLAADEGYLNPEKVKEVVEKAAETLSAESLKEILKHLKELAKKYPELKETLEEAIEKLEKAIKEKE
B5: GBRAP_160_4302 (protein)
chain: MEELEKLKKEIDEIFDEAIELIEGESPEQRLAIVRVAMGEVILEAMENPKVSDEAEEKIAEIADKTEAEIRANPDLSEEEVKELIEKARDEVIEIIDELE
B6: GBRAP_184_5277 (protein)
chain: KVKLVEIEAETAEEAIKQVKKAAEEAKKEGVKLKLNILLKDADVEGIIELFELLKKLKEEGIIEEAVVGIEREFTEEEIDILVKAADEAGVKLVVAIKDE
B7: GBRAP_117_2595 (protein)
chain: SATDAEVAALVKRLVERIREALEKEKTLSEEERKKLREELLKEATEEVEKMLKLTDSDTVEEFFADALADLSPEERVEAYIIFEEALADAEERLKKEKAA
B8: GBRAP_52_6174 (protein)
chain: RRARAEAAAAALLEAIRAGRWEEVDALLRRAAAEFDDEEIRLMFEIVAERVPELTPEQQERVVEAALRAEDILEAAGHDPELASYLAARVAGAAHAALQA

The target of this assay is GABARAP, O95166. Briefly: median log2 fold change of GCK-ALFA target abundance (FLAG IP / Myc IP barcode read proportion) (log2 ratio); each designed protein is fused to an ALFA-tag nanobody in HEK293 cells to bring the named protein to FLAG-tagged glucokinase (GCK); Myc marks an untargeted standard; higher = target protein stabilised (more abundant). Conditions: target protein: 3xFLAG-MCP-GCK-ALFA reporter; HEK293 landing pad (RPLP). The method, boiled down: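 HEK293 landing-pad cells received a recombined binder library fused to the ALFA nanobody and were induced with 2 μg mL^−1 doxycycline, then transfected with a plasmid encoding a FLAG-tagged target and a Myc-tagged standard. Lysates were collected after 48 h for anti-FLAG and anti-Myc immunoprecipitation, and the circular RNA barcodes were reverse transcribed, amplified and sequenced. Target abundance for each binder is the median log2 ratio of FLAG to Myc barcode read proportions. Barcodes had to reach a proportion of at least 10^−7 in both replicates, each binder needed at least 3 barcodes per replicate, a pseudocount of 10^−6 was applied, and the two replicates were pooled.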
GABARAP, O95166, sequence (O95166 whole entry, the tested form may be a part): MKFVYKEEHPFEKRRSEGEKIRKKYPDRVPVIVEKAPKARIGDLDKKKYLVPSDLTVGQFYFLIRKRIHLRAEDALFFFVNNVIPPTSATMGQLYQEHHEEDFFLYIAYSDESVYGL
As to B1, the “median log2 fold change” value is -0.415.

For B2, the “median log2 fold change” value is 0.0139.

Regarding B3, the “median log2 fold change” value is -0.336. To B4 belongs -0.000635; to B5, -0.204.

Regarding B6, the “median log2 fold change” value is -0.264. In the case of B7, the “median log2 fold change” value was determined as 0.173.

On to B8, for which the “median log2 fold change” value turned out to be 0.22.
